Laboratory results from paper PMC4336329 (PLoS ONE, 2015).
The campaign covered roughly 310,000 compounds. About 2,200 (0.71%) showed an effect of 50% or more. The effect is printed as a negative number. The list shows a part of the results.

biological target: human ether-à-go-go-related gene (hERG) potassium channel (human, UniProt Q12809); experiment: primary screen, population patch clamp on CHO cells stably expressing hERG
Sequence (Q12809 whole entry, looked up): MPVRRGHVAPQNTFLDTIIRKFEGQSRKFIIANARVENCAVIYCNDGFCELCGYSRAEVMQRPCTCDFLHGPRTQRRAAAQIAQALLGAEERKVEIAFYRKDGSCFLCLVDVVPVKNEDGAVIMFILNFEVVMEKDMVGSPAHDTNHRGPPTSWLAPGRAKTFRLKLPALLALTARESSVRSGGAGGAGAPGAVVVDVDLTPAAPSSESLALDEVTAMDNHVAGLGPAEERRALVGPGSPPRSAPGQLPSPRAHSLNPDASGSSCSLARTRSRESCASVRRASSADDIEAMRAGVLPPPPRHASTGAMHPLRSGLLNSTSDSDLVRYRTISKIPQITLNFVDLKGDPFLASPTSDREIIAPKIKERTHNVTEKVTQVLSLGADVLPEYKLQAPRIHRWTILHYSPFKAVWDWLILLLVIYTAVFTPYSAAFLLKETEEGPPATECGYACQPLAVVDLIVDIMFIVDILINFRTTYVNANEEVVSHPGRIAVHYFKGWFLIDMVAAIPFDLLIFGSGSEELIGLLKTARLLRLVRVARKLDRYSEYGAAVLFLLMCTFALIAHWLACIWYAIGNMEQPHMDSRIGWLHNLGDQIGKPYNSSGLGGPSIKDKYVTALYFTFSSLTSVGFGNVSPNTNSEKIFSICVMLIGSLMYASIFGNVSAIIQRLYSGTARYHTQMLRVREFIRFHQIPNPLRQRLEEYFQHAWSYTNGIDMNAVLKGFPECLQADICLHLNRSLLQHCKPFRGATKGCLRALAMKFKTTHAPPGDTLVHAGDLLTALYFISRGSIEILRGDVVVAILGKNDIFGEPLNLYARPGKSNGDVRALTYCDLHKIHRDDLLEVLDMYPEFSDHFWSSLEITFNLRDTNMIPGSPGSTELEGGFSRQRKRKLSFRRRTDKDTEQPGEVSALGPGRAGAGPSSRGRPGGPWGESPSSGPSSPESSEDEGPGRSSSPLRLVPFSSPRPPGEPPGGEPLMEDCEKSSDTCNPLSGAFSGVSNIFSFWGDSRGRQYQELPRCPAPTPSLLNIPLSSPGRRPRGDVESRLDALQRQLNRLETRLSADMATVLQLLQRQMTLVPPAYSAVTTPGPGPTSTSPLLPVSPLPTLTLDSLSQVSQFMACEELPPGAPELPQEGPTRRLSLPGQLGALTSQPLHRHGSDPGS

Structure (SMILES)	hERG current change (%, negative = inhibition) at 1uM [%]
CSc1ncc(C(=O)Nc2ccccc2C)c(C)n1	11.4
O=C([O-])c1ccccc1-[n+]1c(-c2ccccc2)cc(-c2ccccc2)cc1-c1ccccc1	6.47
Cc1ccc[n+](CC(=O)Nc2c(Cl)cc(Cl)cc2Cl)c1.[Cl-]	10.4
CC(C)CCN1CCN(Cc2cc3ccccc3[nH]2)CC1CCO (stereo not drawn)	-2.38
O=C(NCc1ccccc1Cl)c1ccc[nH]1	-8.17
Cc1ccc2nc(C)n(-c3ccc(F)cc3)c(=O)c2c1	19
C[C@@H]1CCC[C@]2(O[C@H](CCO)C[C@H](O)[C@H]2O)O1	9.07
CCOC(=O)CCc1c(C)n[nH]c1C	6.58
CC(=O)NC1=NN(C(C)=O)C(c2ccc(C)cc2)S1 (stereo not drawn)	23.1
COc1ccc(Br)cc1S(=O)(=O)Nc1ncn[nH]1	12.4
COc1cc(S(=O)(=O)N2CCC(C(N)=O)CC2)c(C)cc1C	15
Cc1ccc(CN2C3CCCC2CC(NC(=S)NCc2ccccc2)C3)cc1 (stereo not drawn)	-54.4
COc1ccc(CCNc2nc(-c3sc(C)nc3C)cs2)cc1OC.O=C(O)C(=O)O	-4.56
Cc1onc(-c2ccccc2Cl)c1C(=O)NC(=S)Nc1ccc(C(C)C)cc1	15.3
CC(C)Cc1nnc(NC(=O)c2cc([N+](=O)[O-])ccc2N2CCOCC2)s1	-8.05
COc1ccc(NS(=O)(=O)c2cccc(C(=O)NNC(=O)CNC(=O)c3ccc(C)cc3)c2)cc1	10.4
OC(c1ccccc1)C(O)c1ccccc1 (stereo not drawn)	17.2
O=C(c1ccccc1Cc1ccccc1)N1CCN(S(=O)(=O)c2ccccc2[N+](=O)[O-])CC1	3.17
CC(C)Oc1ccc(C2CC(=O)N(c3ccc(C(=O)O)cc3)C2=O)cc1 (stereo not drawn)	13.5

Structure (SMILES)	hERG current change (%, negative = inhibition) at 1uM [%]
CCOC(=O)C1(Cc2ccc(Cl)cc2)CCN(C2CCC2)CC1	-18.9
CCOCCCn1c(SC(C(=O)Nc2cc(C)ccc2C)c2ccccc2)nnc1-c1ccc(Cl)cc1 (stereo not drawn)	13.5
COc1cccc(NC(=O)CSc2nc3c([nH]c4ccccc43)c(=O)n2C)c1	13.5
CCOC(=O)C1CCN(C(=O)CSc2n[nH]c(=O)[nH]c2=O)CC1	15.9
CS(=O)(=O)N(CC(=O)N1CCCC1)Cc1ccc(Cl)cc1	0.0292
COc1ccc(C(=O)CC(=O)c2ccccc2O)cc1	16.4
Cc1nn(C(C)(C)C)c(OC(=O)c2ccc3c(c2)OCO3)c1S(=O)(=O)c1ccccc1	8.74
CCc1ccc(C(=O)N2CCN(c3ccc(NC(=O)c4cccnc4)cc3)CC2)cc1	-26.9
CCCCNc1nc(Nc2ccc(C)c(Cl)c2)c2cnn(C)c2n1	9.96
CCCCCCC/C(C)=N/NC(=O)CC(=O)NCCc1ccccc1	7.45
CCCc1cc(C(=O)N(C)CC(=O)Nc2ccc(OCC)c(OCC)c2)sc1C	-2.22
CCCS(=O)(=O)c1nc(S(=O)(=O)c2ccc(C)cc2)c(N2CCC(C)CC2)s1	15.5
Cc1ccc(/C([O-])=C(/C(=S)NCc2ccccc2)[n+]2ccccc2)cc1[N+](=O)[O-]	4.1
CC(=O)C1=C(C)OC(N)=C(C#N)C1c1cc2cc(C)c(C)cc2nc1Cl (stereo not drawn)	5.85
O=S(=O)(NCC1CCCO1)c1ccc(-c2ccc(Cl)cc2)cc1 (stereo not drawn)	12.8
C#CCOc1ccc2c(c1)c(C(C)=O)c(C)n2Cc1ccccc1	8.63
COc1ccc(N/C=C/C(=O)c2ccc(Cl)cc2)cc1	1.77
CCc1cccc(C)c1NC(=O)c1cc(=O)[nH]c2ccc(S(=O)(=O)N3CCOCC3)cc12	6.57
CCN(CC)CCNC(=O)c1ccc(Sc2ccc(Cl)cc2)c(NC(C)=O)c1	-10.8

Structure (SMILES)	hERG current change (%, negative = inhibition) at 1uM [%]
CCn1c(CNc2ccccc2Cl)nnc1SCC(=O)NCc1ccccc1	-0.207
CC(=O)C1=C(c2ccccc2)OC(N)=C(C#N)C1c1ccccc1F (stereo not drawn)	5.71
Cc1noc(C)c1COc1cccc(C(=O)Nc2ccccc2N2CCOCC2)c1	1.23
O=C(COC(=O)c1cnccn1)Nc1ncc(Cl)cc1Cl	8.51
C=C1CCN(C(CC(C)C)C(=O)OC)S(=O)(=O)c2ccccc21 (stereo not drawn)	9.71
CCc1ccc(C(=O)N2CCCC2)s1	20.8
O=S(=O)(Nc1cccnc1)c1cccs1	18.1
CC(C)COc1ccc(C(=O)Nc2ccccc2[N+](=O)[O-])cc1	16.2
COc1cc(S(=O)(=O)N(Cc2ccccn2)Cc2ccco2)ccc1-n1cnnn1	-0.747
CCOC(=O)C1C(=O)OC(C)(C)C1C(C)C(=O)c1ccc(OC)cc1 (stereo not drawn)	4.21
Cc1oc(/C=N/NC(=O)CN(c2ccccc2Cl)S(C)(=O)=O)cc1Br	5.86
C(/CCc1ccccc1)=N\Nc1nc2ccccc2[nH]1	2.85
Cc1ccc(OCC(=O)NCCCNC(=O)c2ccccn2)cc1	4.73
CC1CCCCN1C(=O)c1ccc(N2CC3CC(C2)c2cccc(=O)n2C3)c([N+](=O)[O-])c1 (stereo not drawn)	1.91
CCOC(=O)C1CCN(c2ncnc3c2nnn3Cc2ccccc2Cl)CC1	7.99
CCCN1CCC(CCOc2ccccc2)(C(=O)OCC)CC1	-2.96
CCOC(=O)Cn1c(C)cc(=O)c2cccc(C)c21	3.9
O=C(NC(=S)N1CCN(c2nc(-c3ccccc3)cs2)CC1)c1cccnc1	13.7
O=C1CS/C(=N/N=C/c2ccccc2OS(=O)(=O)c2ccccc2)N1	11.7
